Data taken from PubChem BioAssay AID624418 (National Center for Advancing Translational Sciences (NCATS), 2012).
The campaign covered roughly 410,000 compounds. About 530 (0.13%) were called active. This list was built around the results that the source calls inconclusive (neither active nor inactive); the mix of calls is not that of the screen. Calls follow the shape of the dose curve; as a rule, active = well fitted inhibition curve with a large enough effect; inconclusive = small, poorly fitted or top-dose-only effect, or another doubt; inactive = no such curve, though single readings can be large or run the other way. Potencies of inconclusive entries are doubtful fits and often do not repeat.

Assay: qHTS of GLP-1 Receptor Inverse Agonists: Cytotox Screen
Conditions: HEK293 cAMP-luciferase reporter cells, luminescence, 24 h; activity change, negative = inhibition: at 38.3 µM (top of the series) unless noted
Outline: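 Here, cytotoxicity is scored as loss of luminescence. The MLSMR collection was tested on cells seeded in medium containing 10% Nu serum, with a 24 hr compound exposure preceded by 12 hours of culture.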
% is scaled to controls: 0 for no effect and ±100 for the full control effect; potency is read from the fitted curve at half-maximal effect.

SMILES	Potency	activity change, negative = inhibition
c1ccc2c(CN3CCN(C4CCCCC4)CC3)c[nH]c2c1	inconclusive: 14.1 µM [inhibitor, single point]	
Oc1cc(Cl)ccc1Oc1ccc(Cl)cc1Cl	inconclusive: 10 µM [inhibitor, single point]	
Nc1cc(N2CCNCC2)ccc1[N+](=O)[O-]	inconclusive: 3.55 µM [inhibitor, full curve]	
CCCCC12CN3CC(C)(CN(C1)C3c1ccccn1)C2=O (centres undefined)		inactive: -2.19%
CC1CC(C)CC(C)C(O)C(C#N)=CC=CCC(C2CCCC2C(=O)O)OC(=O)CC(O)C(C)C1 (centres undefined)	inconclusive: 1.26 µM [inhibitor, full curve]	
COc1ccc(C(c2nnnn2Cc2ccccc2)N2CCC(n3c(=O)[nH]c4ccccc43)CC2)cc1 (centres undefined)	inconclusive: 15.8 µM [inhibitor, single point]	
CCOc1ccc(CSC(=N)N)cc1[N+](=O)[O-]	inconclusive: 10 µM [inhibitor, single point]	
Nc1ncn([C@@H]2O[C@H](CO)[C@@H](O)[C@H]2O)c(=O)n1	inconclusive: 10 µM [inhibitor, partial curve, poor fit]	
CNCCc1c[nH]c2ccc(O)cc12		inactive: 0.768%
Oc1c(Cl)cccc1Cc1cc(Cl)cc(Cl)c1O	inconclusive: 7.08 µM [inhibitor, partial curve, poor fit]	
CC1CCC(C(C)C)C(OC(=O)Cn2c(COc3ccccc3)[n+](C)c3ccccc32)C1 (centres undefined)	inconclusive: 10 µM [inhibitor, single point]	
CCN1/C(=C\C=C\C2=[N+](CC)c3ccccc3C2(C)C)C(C)(C)c2ccccc21	inconclusive: 2 µM [inhibitor, partial curve, poor fit]	
C[C@@H]1NCCc2cc(O)c(O)cc21		inactive: -4.07%
N#C/C(=C\c1cccc(NC(=O)c2ccccc2Cl)c1)C(=O)NCCc1ccccc1	inconclusive: 28.2 µM [inhibitor, single point]	
CC1OC(OC2C(O)CC(OC3C(O)CC(OC4CCC5(C)C(CCC6C5CCC5(C)C(C7=CC(=O)OC7)C(O)CC65O)C4)OC3C)OC2C)CC(O)C1O (centres undefined)	inconclusive: 0.355 µM [inhibitor, full curve]	
COc1ccc(C(=O)C2CCCN(Cc3cccc(C)n3)C2)c(OC)c1 (centres undefined)	inconclusive: 28.2 µM [inhibitor, single point]	
C=C1C(=O)O[C@H]2C[C@H]1[C@@H](OC(C)=O)C/C(C)=C/CC/C(C)=C\CC[C@]2(C)O	inconclusive: 10 µM [inhibitor, partial curve, poor fit]	
CCCc1nc2ccc(Br)cc2c(=O)n1-c1ccc([N+](=O)[O-])c(C(F)(F)F)c1	inconclusive: 28.2 µM [inhibitor, single point]	
C1=NCCc2c1[nH]c1ccccc21	inconclusive: 20 µM [inhibitor, single point]	
O=C(N/N=C/c1ccncc1)c1ccccc1OCc1ccc(Br)cc1	inconclusive: 28.2 µM [inhibitor, single point]	

SMILES	Potency	activity change, negative = inhibition
CCCCCN1C(=O)c2cc(OC)ccc2[C@@]2(C(=O)OCC)Cc3cc(OC)ccc3[C@@H]12	inconclusive: 15.8 µM [inhibitor, single point]	
CC(C)(C)C1CCC(=NNC(=S)NCc2ccccc2)CC1 (centres undefined)	inconclusive: 12.6 µM [inhibitor, partial curve, poor fit]	
Cc1ccc(CN2C3CCCC2CC(NC(=S)NCc2ccccc2)C3)cc1 (centres undefined)		inactive: -20.8%
O=C(CCc1ccccc1)NC(NC(=S)Nc1ccc(Cl)cc1)C(Cl)(Cl)Cl (centres undefined)	inconclusive: 11.2 µM [inhibitor, single point]	
N#CCCn1cc(C(=O)Nc2ccc([N+](=O)[O-])cc2)c(-c2ccc3c(c2)OCCO3)n1	inconclusive: 10 µM [inhibitor, single point]	
O=C1CN=C(c2ccccc2)c2ccccc2N1Cc1ccc(C(F)(F)F)cc1	inconclusive: 12.6 µM [inhibitor, single point]	
COC(=O)C1=C(c2cccc(OC)c2OC)C[C@@H]2CC[C@H]1N2C(=O)NCc1ccc(F)cc1	inconclusive: 2.82 µM [inhibitor, full curve]	
O=[N+]([O-])c1ccc(N(CCO)CCO)c2c1no[n+]2[O-]	inconclusive: 28.2 µM [inhibitor, single point]	
CCCOc1cccc(C(=O)Nc2cc(-c3nc4ccccc4[nH]3)ccc2C)c1	inconclusive: 28.2 µM [inhibitor, single point]	
C=CS(=O)c1sc(Cl)c(N2CCOCC2)c1[N+](=O)[O-] (centres undefined)	inconclusive: 28.2 µM [inhibitor, single point]	
N=C1c2ccccc2CN1NC(=O)c1ccc(Br)o1	inconclusive: 1 µM [inhibitor, full curve, poor fit]	
CN(C)C(=O)Oc1ccc(Br)cc1C(=O)Nc1ccc(F)c(Cl)c1		inactive: -17.9%
CCC(=NCCO)c1c(O)n(C2CCCCC2)c(=O)[nH]c1=O		inactive: -9.74%
Cc1cc(Cl)ccc1N(CC(=O)N=Nc1c(O)[nH]c2ccccc12)S(C)(=O)=O	inconclusive: 28.2 µM [inhibitor, single point]	
C=C1C(=O)OC2CC1C(O)CC(C)=CCCC(C)=CC(O)CC2C (centres undefined)	inconclusive: 7.94 µM [inhibitor, partial curve, poor fit]	
COC(=O)C1=C(c2ccccc2OCc2ccccc2)C[C@@H]2CC[C@H]1N2C(=O)NC1CCN(Cc2ccccc2)CC1	inconclusive: 28.2 µM [inhibitor, single point]	
CCOc1ccc(OCc2ccc(C(=O)N/N=C(\C)c3ccccn3)cc2)cc1	inconclusive: 1.78 µM [inhibitor, full curve, poor fit]	
CCCCCCCCCCCCCCCCn1cc[n+](C)c1	inconclusive: 12.6 µM [inhibitor, partial curve, poor fit]	
CCOC(=O)c1ccc(Nc2nnc(C(C)(C)C)c(=O)[nH]2)cc1	inconclusive: 10 µM [inhibitor, single point]	
Cc1ccc(C(=O)/C=C/c2cc(Br)cc(Br)c2O)o1	inconclusive: 25.1 µM [inhibitor, single point]	

SMILES	Potency	activity change, negative = inhibition
COC(=O)C[C@]1(C(=O)OC)CN(C#N)N(c2ccc(Cl)cc2)C12c1ccccc1-c1ccccc12	active: 1.12 µM	
CCn1c(N2CCN(C(=O)C34CC5CC(CC(C5)C3)C4)CC2)nc2ccccc21	inconclusive: 28.2 µM [inhibitor, single point]	
Cc1ccc(C(=O)N[C@@H](C)CN2C3=NC[C@@H](Cc4ccccc4)N3C[C@H]2Cc2ccc(O)cc2)cc1Br	inconclusive: 28.2 µM [inhibitor, partial curve, poor fit]	
CC[C@@H](C)[C@H](NC(=O)OC(C)(C)C)c1nnc(S(=O)(=O)Cc2cc(C)ccc2C)o1	inconclusive: 11.2 µM [inhibitor, single point]	
O=C(NCc1ccco1)c1nc2c(nnn2Cc2ccccc2Cl)c(=O)[nH]1	inconclusive: 12.6 µM [inhibitor, partial curve, poor fit]	
O=C(OC1C2CCC1C1CN(CCc3ccccc3)CC12)c1ccccc1 (centres undefined)	inconclusive: 15.8 µM [inhibitor, partial curve, poor fit]	
CN1C(=O)C(Cl)(Cl)C(=O)c2ccccc21	inconclusive: 28.2 µM [inhibitor, single point]	
CCOC(=O)c1c(NS(=O)(=O)c2ccccc2)n(CCCOC)c2nc3ccccc3nc12		inactive: 471%
COc1cccc(C(=O)Nc2ccc(-c3nc4ccccc4o3)c(O)c2)c1	inconclusive: 12.6 µM [inhibitor, single point]	
COc1cc(C)c(CNCCc2c[nH]c3ccccc23)cc1C	inconclusive: 22.4 µM [inhibitor, single point]	
O=c1[nH]c2ccccc2n1C1CCN(Cc2ccc(-c3nc4ccc(F)cc4nc3-c3ccccc3)cc2)CC1	inconclusive: 12.6 µM [inhibitor, partial curve]	
O=c1[nH]nc(SCCS(=O)(=O)c2ccc(F)cc2)n1-c1ccccc1C(F)(F)F	inconclusive: 3.16 µM [inhibitor, full curve]	
CCC(C)Nc1nc(N)c([N+](=O)[O-])c(Nc2cc(OC)ccc2OC)n1 (centres undefined)	inconclusive: 20 µM [inhibitor, single point]	
O=[As](O)(O)c1ccc(N=Nc2ccc(O)cc2)cc1	inconclusive: 10 µM [inhibitor, single point]	
COc1cc(SC#N)ccc1N=Cc1c(C)[nH]n(-c2ccc(C)c(C)c2)c1=O	inconclusive: 12.6 µM [inhibitor, single point]	
CC1(C)CC[C@]2(C(=O)O)CC[C@]3(C)C(=CC[C@@H]4[C@@]5(C)CC[C@H](O[C@@H]6O[C@H](C(=O)O)[C@@H](O)[C@H](O[C@@H]7OC[C@H](O)[C@H](O)[C@H]7O)[C@H]6O)C(C)(C)[C@@H]5CC[C@]43C)[C@@H]2C1	inconclusive: 14.1 µM [inhibitor, single point]	
C[C@@H]1CN([C@H](C)CO)C(=O)c2c(c3ccccc3n2C)-c2ccccc2CO[C@@H]1CN(C)Cc1ccc(O)cc1	inconclusive: 10 µM [inhibitor, single point]	
CCCCNC(=S)Nc1ccc(C(F)(F)F)cc1	inconclusive: 28.2 µM [inhibitor, single point]	
CN1CCN(c2ccc([N+](=O)[O-])c(N)c2)CC1	inconclusive: 12.6 µM [inhibitor, single point]	
